# Paper PMC4336329 (PLoS ONE, 2015)
# The campaign covered roughly 310,000 compounds. About 2,200 (0.71%) showed an effect of 50% or more. Effects have a minus sign here. The list shows a part of the results.
# Biological target: human ether-à-go-go-related gene (hERG) potassium channel (human, UniProt Q12809)
# Assay: primary screen, population patch clamp on CHO cells stably expressing hERG
# Chain of human ether-à-go-go-related gene (hERG) potassium channel (Q12809 whole entry, looked up): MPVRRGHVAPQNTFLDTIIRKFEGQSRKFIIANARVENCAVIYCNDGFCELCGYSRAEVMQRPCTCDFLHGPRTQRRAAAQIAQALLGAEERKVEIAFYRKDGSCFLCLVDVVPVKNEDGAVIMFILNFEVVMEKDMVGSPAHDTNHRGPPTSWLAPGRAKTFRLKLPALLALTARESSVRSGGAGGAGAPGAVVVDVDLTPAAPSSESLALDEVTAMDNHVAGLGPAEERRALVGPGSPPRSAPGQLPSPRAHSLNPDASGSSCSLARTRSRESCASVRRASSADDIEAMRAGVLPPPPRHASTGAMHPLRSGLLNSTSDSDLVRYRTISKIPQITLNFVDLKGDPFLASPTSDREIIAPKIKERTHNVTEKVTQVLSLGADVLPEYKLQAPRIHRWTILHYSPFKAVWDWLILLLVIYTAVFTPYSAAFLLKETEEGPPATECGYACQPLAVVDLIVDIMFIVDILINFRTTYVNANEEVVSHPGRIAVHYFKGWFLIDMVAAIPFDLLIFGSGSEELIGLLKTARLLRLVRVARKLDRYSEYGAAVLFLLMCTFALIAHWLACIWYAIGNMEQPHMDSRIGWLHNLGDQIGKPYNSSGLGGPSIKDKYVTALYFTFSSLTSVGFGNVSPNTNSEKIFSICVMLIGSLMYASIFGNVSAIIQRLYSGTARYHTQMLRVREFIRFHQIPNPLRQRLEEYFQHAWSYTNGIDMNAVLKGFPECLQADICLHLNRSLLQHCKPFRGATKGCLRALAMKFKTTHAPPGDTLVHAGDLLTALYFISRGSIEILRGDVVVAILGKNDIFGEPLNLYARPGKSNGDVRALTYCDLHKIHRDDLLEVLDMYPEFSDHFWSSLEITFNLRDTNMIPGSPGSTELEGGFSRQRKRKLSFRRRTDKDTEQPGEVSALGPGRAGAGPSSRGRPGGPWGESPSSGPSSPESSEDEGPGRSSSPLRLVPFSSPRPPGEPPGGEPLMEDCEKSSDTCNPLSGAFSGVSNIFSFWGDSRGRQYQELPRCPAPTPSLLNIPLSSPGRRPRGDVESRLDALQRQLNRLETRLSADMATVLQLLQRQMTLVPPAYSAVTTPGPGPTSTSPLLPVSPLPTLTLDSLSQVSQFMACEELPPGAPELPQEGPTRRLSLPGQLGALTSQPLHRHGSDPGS
row,Compound,"hERG current change (%, negative = inhibition) at 1uM [%]"
1,Cc1cc(N=CC2=C(O)CCCC2=O)no1,6.14
2,O=C(O)COc1ccccc1/C=N/NC(=O)CSc1nnc(-c2ccc(Cl)cc2)n1C1CCCCC1,9.47
3,COC1=C/C(=C/c2c(N)n3nc(CC(=O)N4CCCCC4)sc3nc2=O)C=CC1=O,8.31
4,Cc1cc(C(=O)N[C@@H](c2ccccc2)[C@]2(C)C[C@H]2[C@@H](C)C(=O)Nc2ccc3ccccc3c2)no1,3.85
5,O=C(CCn1c(=O)oc2ccccc21)N1CCOCC1,17.4
6,CCO[C@@H]1OC(C(=O)N2CCN(Cc3ccc4c(c3)OCO4)CC2)=C[C@H](c2csc3ccccc23)[C@H]1CCCO,-1.8
7,CCOc1ccc(S(=O)(=O)NCCC(=O)NCC(c2cccs2)N2CCOCC2)cc1 (stereo not shown),2.32
8,CC(C)(C)OC(=O)NCCc1nnc(SCc2ccc(Cl)cc2)o1,-16.1
9,C=CCc1c(C)nc2c(C)cccc2c1SC(=N)N.Cl,7.72
10,COc1cc(CC(NC(C)=O)C(=O)NC2CCN(c3nc(C)cc(C)c3C#N)CC2)cc(OC)c1 (stereo not shown),-6.05
11,CC1=C([N+](=O)[O-])C(c2ccc(O)c(O)c2)NC(=O)N1 (stereo not shown),9.61
12,CCOC(=O)N1CCC(NC(=O)CCc2cn(C)c3ccccc23)CC1,-8.18
13,COc1ccc(N(C)C(=O)CCC(=O)Nc2ccc3nc(N4CCOCC4)cc(C)c3c2)c(OC)c1,0.874
14,Cn1c(=O)c2c(nc(NCCNC(=O)c3ccco3)n2Cc2ccc(F)cc2)n(C)c1=O,6.86
15,CCOC(=O)c1c(CN2CCCCC2)n(C)c2cc(Br)c(OC)cc12,9.14
16,O=c1c(/C=N/O)coc2ccc(Cl)cc12,16.3
17,C=CCn1c(=O)[nH]c2cc(C(=O)N3CCN(c4cccc(Cl)c4)CC3)ccc2c1=O,-0.995
18,Cc1cc(N/N=C/c2c(O)ccc3ccccc23)nc(-c2ccccc2O)n1,-5.67
19,O=C(NNS(=O)(=O)c1ccccc1F)c1sccc1-n1cccc1,6.96
20,C/C(=N\Nc1ccccc1)c1c(O)n(C)c(=O)n(C)c1=O,8.67
21,Cc1ccc(-c2nnc(SCC(=O)n3c4c(c5ccccc53)CCCC4)o2)cc1,7.07
22,COc1ccc(/C=N/n2c(SC)nnc(C(C)(C)C)c2=O)cc1,15
23,CC1(C)CC(=O)C=C(Nc2ccccc2NC(=O)c2cnccn2)C1,-46.7
24,Cc1ccc(NC(=O)C2OCCc3ccccc32)cc1 (stereo not shown),9.81
25,CCCn1c(=N)n(CC(O)COc2cccc(C)c2)c2ccccc21.Cl (stereo not shown),-60
26,CCn1nc(C)c(CN2CCC(C(=O)Nc3cccc(-c4cccc(F)c4)c3)CC2)c1C,-6.47
27,Br.O=C(CN1C2=NCCN2c2ccccc21)c1ccc(Br)cc1,-28.4
28,Cc1ccc(Cl)cc1-n1c(SCC(=O)NCCC2=CCCCC2)nc2n[nH]c(C)c2c1=N,1.08

row,Compound,"hERG current change (%, negative = inhibition) at 1uM [%]"
1,CCOC(=O)Cc1csc(NC(=O)COc2cccc(C)c2)n1,15.5
2,CCOC(=O)c1c(C)[nH]c(C(=O)COc2ccc3c(c2)OCO3)c1C,6.04
3,CCN(CC)S(=O)(=O)c1cccc(C(=O)N/N=C/c2ccc(OC)c(O)c2)c1,2.17
4,O=C(O)c1ccc(/C=N/N2CCN(C3c4ccccc4-c4ccccc43)CC2)cc1,15.6
5,Nc1nc2ccccc2cc1-c1cccs1,14.5
6,c1coc(-c2ccnc3ncnn23)c1,13.9
7,CC(C)(C)NC(=O)NC(=O)CSc1ccc(S(=O)(=O)N2CCOCC2)cn1,-1.99
8,COc1ccccc1/C=N\NC(=O)c1ccc(COc2ccc(C)c(C)c2)o1,7.09
9,CCC(=O)Nc1ccc2c(c1)ncn2C,18
10,CS(=O)(=O)N(CC(=O)N1CCOCC1)c1ccc(Cl)cc1,11.9
11,COc1ccc(OC)c(Nc2nc(-c3sc(NC(=O)c4ccccc4)nc3C)cs2)c1,-9.63
12,CN1CCN(c2ccc(NC(=O)c3ccco3)cc2Cl)CC1,-2.05
13,CN(CC(=O)Nc1ccccc1Cl)C(=O)CCSc1ccc(F)cc1,4.34
14,COc1cccc(N2CCN(c3ccc4nnc(CCC(=O)Nc5ccc(F)cc5)n4n3)CC2)c1,11.1
15,CCc1c(C)nc2ncnn2c1N1CCCC(C(=O)NCc2cccs2)C1 (stereo not shown),12.3
16,Cc1ccc(C)c(NC(=O)C2=CCN(S(=O)(=O)c3ccc(F)cc3)CC2)c1,13.6
17,O=C1NC(=O)N(c2ccccc2)C(=O)/C1=C\c1ccc([N+](=O)[O-])s1,16.8
18,Cc1ccc(-n2nc(C)c3c(C)c(CCC(=O)NC(C)c4ccccc4)c(C)nc32)cc1 (stereo not shown),12.2
19,CCn1c(-c2csc3ccccc23)n[nH]c1=S,5.38
20,O=C(O)c1cccnc1Br,5.58
21,NNC(=O)CNC(c1ccccc1)c1cc(Br)ccc1NC(=O)c1cccc(Cl)c1 (stereo not shown),7.62
22,CC(C)c1ccc(NC(=O)C2CSC3(C)CCC(=O)N23)cc1 (stereo not shown),10.9
23,Cc1cc(C)c(C#N)c(N2CCN(c3ccccc3)CC2)n1,16.3
24,COc1ccc(C(=O)Oc2cc3c4c(c2)C(C)=CC(C)(C)N4C(=O)C3=O)cc1OC,15.1
25,CCOC(=O)c1ccc(NC(=O)C2CCCN(c3cnccn3)C2)cc1 (stereo not shown),-3.2
26,COc1cccc(Nc2ccc(N3CCCCC3)cc2)c1OC,8.03
27,Cc1cccc(C(=O)N/N=C/c2ccccn2)c1,0.412
